Results as given in patent US9493440B2, “Compounds inhibiting leucine-rich repeat kinase enzyme activity” (Merck Sharp & Dohme Corp., priority 2013, dated 2016).
pIC50: −log10 of the molar value.

Target: LRRK2(G2019S mutation, GST-LRRK2(amino acids 970-2527)) (Homo sapiens (Human), UniProt Q5S007, G2019S)
Assay: LRRK2 Km ATP LanthaScreen Assay
Conditions: read-out: LRRK2 IC50; Km ATP LanthaScreen Assay, mean IC50

Row | Structure (SMILES) | pIC50
1 | CC1(Oc2ccc3[nH]nc(-c4cc(N5CCC(F)(F)CC5)ncn4)c3c2)CC1 [Example 62] | 8.26
2 | CC1(Oc2ccc3[nH]nc(-c4cc(N5CCN(Cc6cocn6)CC5)ncn4)c3c2)CC1 [Example 119] | 8.72
3 | C[C@H]1CN(c2cc(-c3n[nH]c4ccc(OC5(C)CC5)cc34)ncn2)CCN1Cc1ccco1 [Example 128] | 9.15
4 | CCC1(Oc2ccc3[nH]nc(-c4cc(N5CC[C@H](N)C5)ncn4)c3c2)CC1 [Example 213] | 8.46
5 | CC1(Oc2ccc3[nH]nc(-c4cc(N5CCN6CCC5CC6)ncn4)c3c2)CC1 [Example 84] | 8.09
6 | C[C@@H]1CN(c2cc(-c3n[nH]c4ccc(OC5(C)CC5)cc34)ncn2)CCN1CC1CC1 [Example 137] | 8.77
7 | CCN1CCN(c2cc(-c3n[nH]c4ccc(OC5(C)CC5)cc34)ncn2)CC1=O [Example 19] | 8.97
8 | c1nc(-c2n[nH]c3ccc(O[C@@H]4CCOC4)cc23)cc(N2CCOCC2)n1 [Example 161] | 7.90
9 | CC1(Oc2cc3c(-c4cc(N5C6CCC5COC6)ncn4)n[nH]c3cc2F)CC1 [Example 194] | 8.96
10 | CC1(Oc2ccc3[nH]nc(-c4cc(N5CC[C@@H](F)C5)ncn4)c3c2)CC1 [Example 69] | 8.48
11 | CC(O)C(=O)N1CCN(c2cc(-c3n[nH]c4ccc(OC5(C)CC5)cc34)ncn2)CC1 (centres unmarked) [Example 94] | 8.80
12 | CC1(Oc2ccc3[nH]nc(-c4cc(N5CCn6nc(C7CC7)nc6C5)ncn4)c3c2)CC1 [Example 83] | 8.38
13 | CC1(Oc2ccc3[nH]nc(-c4cc(N5CCO[C@@H](c6ccccc6)C5)ncn4)c3c2)CC1 [Example 95] | 8.22
14 | CC1(Oc2ccc3[nH]nc(-c4cc(N5CCN(CCO)C(=O)C5)ncn4)c3c2)CC1 [Example 231] | 9.14
15 | C[C@H]1CN(c2cc(-c3n[nH]c4cc(F)c(OC5(C)CC5)cc34)ncn2)CCO1 [Example 152] | 8.88
16 | CC1(Oc2ccc3[nH]nc(-c4cc(N5CCN6C(=O)OCC6C5)ncn4)c3c2)CC1 (centres unmarked) [Example 111] | 8.80

Row | Structure (SMILES) | pIC50
17 | CC1(Oc2cc3c(-c4cc(N5CCN(c6nncs6)CC5)ncn4)n[nH]c3cc2F)CC1 [Example 180] | 9.15
18 | CC1(Oc2ccc3[nH]nc(-c4cc(N5CCN(C6CCS(=O)(=O)C6)CC5)ncn4)c3c2)CC1 (centres unmarked) [Example 100] | 9.10
19 | CC1(Oc2ccc3[nH]nc(-c4cc(N5CC(n6cccn6)C5)ncn4)c3c2)CC1 [Example 58] | 8.30
20 | CC1(Oc2ccc3[nH]nc(-c4cc(N5CCc6oc(C7CC7)nc6C5)ncn4)c3c2)CC1 [Example 60] | 8.11
21 | CN1CCC2(CCN(c3cc(-c4n[nH]c5ccc(OC6(C)CC6)cc45)ncn3)CC2)C1=O [Example 39] | 9.15
22 | CCCN1CCN(c2cc(-c3n[nH]c4ccc(OC5(C)CC5)cc34)ncn2)CC1 [Example 42] | 8.85
23 | CC1(Oc2ccc3[nH]nc(-c4cc(N5CC[C@H](F)C5)ncn4)c3c2)CC1 [Example 70] | 8.57
24 | CC1(Oc2cc3c(-c4cc(N5CC[C@H](N)C5)ncn4)n[nH]c3cc2F)CC1 [Example 204] | 8.80
25 | COCC(=O)N1CCN(c2cc(-c3n[nH]c4ccc(OC5(C)CC5)cc34)ncn2)CC1 [Example 96] | 8.70
26 | CC(CC1CC1)N1CCN(c2cc(-c3n[nH]c4ccc(OC5(C)CC5)cc34)ncn2)C[C@H]1C (some centres unmarked) [Example 141] | 8.60
27 | CC(C)N1CCN(c2cc(-c3n[nH]c4ccc(OC5(C)CC5)cc34)ncn2)C[C@@H]1C [Example 135] | 8.82
28 | C[C@H]1CN(c2cc(-c3n[nH]c4ccc(OC5(C)CC5)cc34)ncn2)CCN1Cc1ncco1 [Example 129] | 9.22
29 | CC1(Oc2ccc3[nH]nc(-c4cc(N5CC(n6cnnc6)C5)ncn4)c3c2)CC1 [Example 67] | 8.48
30 | CC1(Oc2ccc3[nH]nc(-c4cc(N5CCN(CC6CCCO6)CC5)ncn4)c3c2)CC1 (centres unmarked) [Example 115] | 9.15
31 | CCC1(Oc2ccc3[nH]nc(-c4cc(N5CC[C@@H](N)C5)ncn4)c3c2)CC1 [Example 212] | 8.70
32 | CC1(Oc2ccc3[nH]nc(-c4cc(N5CCN(C6CC6)CC5)ncn4)c3c2)CC1 [Example 2] | 8.56
